According to the supplement of paper PMC6531468:
The list shows a part of the results. These are enrichments in a pooled selection; single values are uncertain. Scores sum up all selected molecules that hold the word; the word was not tested alone.

system: IMP3 KH1-4; experiment: 6-mer SELEX enrichment z-score vs GST control; IMP3 is the RNA-binding protein IGF2BP3; higher = more enriched by binding; conditions: construct: KH1-4 (164-579); SELEX round: R4
Experimental: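 SELEX-seq with GST-tagged IMP3 KH1-4 (Pro164-Lys579) and an N40 RNA pool, round 4. 6-mer z-score of sequence-tag enrichment normalised to the corresponding GST SELEX round; RNA k-mers written as DNA (T for U).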

IMP3 KH1-4, sequence (chain, as listed by the source): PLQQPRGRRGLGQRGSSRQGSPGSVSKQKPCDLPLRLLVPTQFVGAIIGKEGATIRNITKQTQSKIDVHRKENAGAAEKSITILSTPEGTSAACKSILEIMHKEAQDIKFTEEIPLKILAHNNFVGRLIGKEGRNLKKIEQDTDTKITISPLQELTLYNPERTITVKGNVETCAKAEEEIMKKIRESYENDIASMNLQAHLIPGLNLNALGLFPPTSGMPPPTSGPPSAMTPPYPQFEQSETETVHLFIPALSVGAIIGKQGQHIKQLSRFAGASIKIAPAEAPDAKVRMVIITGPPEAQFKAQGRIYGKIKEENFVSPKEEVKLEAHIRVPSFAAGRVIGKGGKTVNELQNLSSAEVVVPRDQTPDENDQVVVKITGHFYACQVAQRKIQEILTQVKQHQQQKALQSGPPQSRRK

Row | Sequence | 6-mer SELEX enrichment z-score
1 | TACCGT | -0.155
2 | GAGTAC | -0.634
3 | GTTAGT | 0.169
4 | AATACC | -0.993
5 | ATGGGA | 0.928
6 | TATGCA | 1.11
7 | ATTGAC | 0.21
8 | ATAAGG | 0.882
9 | ATAAGA | 1.39
10 | TTGTAA | 0.34
11 | TCCGCG | -0.953
12 | ACTAAG | 0.158
13 | CCCACT | -0.817
14 | ATGCAC | 1.52
15 | CATTCC | 1.14
16 | GGTGCT | -0.266
17 | TCTACC | -0.603
18 | GACGCA | -0.336
19 | CACCTT | -0.103
20 | ATAGGC | 1.04

Row | Sequence | 6-mer SELEX enrichment z-score
21 | TTGTTT | 0.332
22 | GATCCC | -0.57
23 | TAATCC | 0.132
24 | GGAGAA | 1.04
25 | CACGGT | 0.049
26 | GGCTTC | -0.034
27 | ATCAGG | 0.64
28 | CGAACA | -0.899
29 | AGCTCC | -0.074
30 | ATGTGA | 1.12
31 | CTCCGT | -0.156
32 | ACCATC | 0.394
33 | CCACGG | -0.398
34 | CAATCA | 0.849
35 | AAACGT | -1.69
36 | AAGCCA | -0.536
37 | AAATCG | -1.04
38 | ATAACG | 0.827
39 | AACGAT | -0.008

target: IMP3 full-length (UniProt O00425); experiment: as above; conditions: construct: FL IMP3 (1-579); SELEX round: R4
Experimental: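 SELEX-seq with GST-tagged full-length IMP3 and an N40 RNA pool, round 4. Each 6-mer is scored as an enrichment z-score of sequence tags containing it, normalised to the matching GST SELEX round. RNA written as DNA (T = U).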

UniProt O00425, sequence (O00425 whole entry): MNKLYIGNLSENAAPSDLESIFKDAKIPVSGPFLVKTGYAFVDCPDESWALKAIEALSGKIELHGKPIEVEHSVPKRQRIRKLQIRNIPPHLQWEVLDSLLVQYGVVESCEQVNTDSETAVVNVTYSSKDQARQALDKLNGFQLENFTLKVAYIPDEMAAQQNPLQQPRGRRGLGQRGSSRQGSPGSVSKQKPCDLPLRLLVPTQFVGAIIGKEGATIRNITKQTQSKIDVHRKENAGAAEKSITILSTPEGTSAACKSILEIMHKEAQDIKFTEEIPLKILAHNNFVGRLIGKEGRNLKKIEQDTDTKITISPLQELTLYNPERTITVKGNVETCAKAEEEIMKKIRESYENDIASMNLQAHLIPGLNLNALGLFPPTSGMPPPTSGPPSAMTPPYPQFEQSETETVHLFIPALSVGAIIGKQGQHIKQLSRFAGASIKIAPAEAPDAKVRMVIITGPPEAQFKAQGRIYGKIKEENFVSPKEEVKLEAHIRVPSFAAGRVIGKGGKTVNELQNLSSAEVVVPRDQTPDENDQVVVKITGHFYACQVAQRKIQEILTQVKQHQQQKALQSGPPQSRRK

Row | Sequence | 6-mer SELEX enrichment z-score
40 | TACCGT | -0.122
41 | GAGTAC | -0.086
42 | GTTAGT | 0.017
43 | AATACC | -1.3
44 | ATGGGA | 0.201
45 | TATGCA | 0.4
46 | ATTGAC | -0.344
47 | ATAAGG | 0.198
48 | ATAAGA | -0.196
49 | TTGTAA | -0.341
50 | TCCGCG | -0.167
51 | ACTAAG | -0.364
52 | CCCACT | -0.775
53 | ATGCAC | 1.01
54 | CATTCC | 1.04
55 | GGTGCT | 0.083
56 | TCTACC | -0.654
57 | GACGCA | 0.235
58 | CACCTT | -0.22
59 | ATAGGC | 0.873

Row | Sequence | 6-mer SELEX enrichment z-score
60 | TTGTTT | 0.135
61 | GATCCC | -0.642
62 | TAATCC | -0.646
63 | GGAGAA | -0.296
64 | CACGGT | 0.615
65 | GGCTTC | 0.403
66 | ATCAGG | 1.41
67 | CGAACA | 0.52
68 | AGCTCC | 0.159
69 | ATGTGA | -0.267
70 | CTCCGT | 0.032
71 | ACCATC | 0.905
72 | CCACGG | 0.253
73 | CAATCA | 3.01
74 | AAACGT | -1.64
75 | AAGCCA | -0.642
76 | AAATCG | -1.11
77 | ATAACG | -0.107
78 | AACGAT | -1.01

system: IMP3 KH1-2; experiment: as above; conditions: construct: KH1-2 (164-376); SELEX round: R4
Experimental: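 SELEX-seq with GST-tagged IMP3 KH1-2 (Pro164-Phe376) and an N40 RNA pool, round 4 (stringent 300/600 mM KCl washes). 6-mer z-score of sequence-tag enrichment normalised to the corresponding GST SELEX round; RNA k-mers written as DNA (T for U).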

IMP3 KH1-2, sequence (chain, as listed by the source): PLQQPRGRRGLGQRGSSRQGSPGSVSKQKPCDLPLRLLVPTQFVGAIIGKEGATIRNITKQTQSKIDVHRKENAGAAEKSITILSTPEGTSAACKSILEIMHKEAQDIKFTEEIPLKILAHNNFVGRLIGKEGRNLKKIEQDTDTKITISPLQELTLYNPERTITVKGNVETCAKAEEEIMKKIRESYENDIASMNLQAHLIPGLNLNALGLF

Row | Sequence | 6-mer SELEX enrichment z-score
79 | TACCGT | -0.168
80 | GAGTAC | -0.634
81 | GTTAGT | 0.087
82 | AATACC | -0.993
83 | ATGGGA | 0.655
84 | TATGCA | 0.882
85 | ATTGAC | 0.021
86 | ATAAGG | 0.741
87 | ATAAGA | 1.24
88 | TTGTAA | 0.156
89 | TCCGCG | -0.748
90 | ACTAAG | -0.02
91 | CCCACT | -0.59
92 | ATGCAC | 1.21
93 | CATTCC | 1.08
94 | GGTGCT | -0.064
95 | TCTACC | -0.626
96 | GACGCA | -0.25
97 | CACCTT | -0.094
98 | ATAGGC | 0.784

Row | Sequence | 6-mer SELEX enrichment z-score
99 | TTGTTT | 0.266
100 | GATCCC | -0.623
101 | TAATCC | 0.126
102 | GGAGAA | 0.758
103 | CACGGT | -0.078
104 | GGCTTC | 0.044
105 | ATCAGG | 0.452
106 | CGAACA | -0.715
107 | AGCTCC | -0.048
108 | ATGTGA | 0.574
109 | CTCCGT | -0.063
110 | ACCATC | 0.318
111 | CCACGG | -0.448
112 | CAATCA | 0.91
113 | AAACGT | -1.78
114 | AAGCCA | -0.574
115 | AAATCG | -1.25
116 | ATAACG | 0.627
117 | AACGAT | -0.246
